For five molecules, binding results are on record in PMC4599808.

For assay [1], the target named is T1, p22-V5/p18-V5 (S. cerevisiae) (UniProt P08405).
T1 sequence: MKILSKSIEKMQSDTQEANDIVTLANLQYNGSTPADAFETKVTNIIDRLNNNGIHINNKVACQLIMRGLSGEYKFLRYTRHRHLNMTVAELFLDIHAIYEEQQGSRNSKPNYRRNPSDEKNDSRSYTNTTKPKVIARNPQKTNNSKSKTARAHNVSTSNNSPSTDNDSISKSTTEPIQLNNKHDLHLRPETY
In words: co-sedimentation; total protein extracts of S. paradoxus DG3508 co-expressing pGTy1his3-AI and pGp22-V5; 7-47% continuous sucrose gradient, SW41, 25,000 rpm, 3 h, 4°C; fractions immunoblotted with p18 and V5 antibodies. Background: A western blot detects proteins with antibodies after separation by electrophoresis.

The target in assay [2] is Ty1 Gag (wild type, Gag-p49/p45) (S. cerevisiae) (UniProt P08405). Description: co-sedimentation; VLP assembly of Gag without p22: total protein extracts of S. paradoxus (1 Ty1 copy strain, or DG3508 with empty vector) expressing pGTy1his3-AI; 7-47% continuous sucrose gradient, 25,000 rpm, 3 h, 4°C; fractions immunoblotted for Gag.
The target of assay [3] is T1, p22-V5/p18-V5 (S. cerevisiae). In words: co-IP; V5 antibody crosslinked to Protein A/G agarose; total cell extracts of Ty1-less S. paradoxus (DG3508) co-expressing pGTy1his3-AI and pGp22-V5; 2 h at 4°C, washed with IP Lysis buffer; Gag detected by immunoblot with p18 antibody.
Assay [4] has as its target Ty1 Gag I343K (S. cerevisiae) (UniProt P08405). Description: co-sedimentation; VLP assembly of Gag without p22: total protein extracts of S. paradoxus (1 Ty1 copy strain, or DG3508 with empty vector) expressing pGTy1his3-AI; 7-47% continuous sucrose gradient, 25,000 rpm, 3 h, 4°C; fractions immunoblotted for Gag.
Assay [5] concerns the target Ty1 Gag L252R (S. cerevisiae) (UniProt P08405). The description is as above.
The target of assay [6] is Ty1 Gag I201T (S. cerevisiae) (UniProt P08405). The description is as above.

Where a chain is given by its changes, count along the chain named. Names and notes keep the numbering of the source. These are yes or no findings as the source states them, for the method shown. Binding seen in cells or lysates may run through a third protein. Some binding calls cover weakened binding; strength is not graded here. For some of these results: Sequences can lack the tags named with a protein.

B1: Ty1 Gag (wild type, Gag-p49/p45) (protein, UniProt P08405 1-440)
chain: MESQQLSQHSPNSHGSACASVTSKEVHTNQDPLDVSASKTEECEKASTKANSQQTTTPASSAVPENPHHASPQPASVPPPQNGPYPQQCMMTQNQANPSGWSFYGHPSMIPYTPYQMSPMYFPPGPQSQFPQYPSSVGTPLSTPSPESGNTFTDSSSADSDMTSTKKYVRPPPMLTSPNDFPNWVKTYIKFLQNSNLGGIIPTVNGKPVRQITDDELTFLYNTFQIFAPSQFLPTWVKDILSVDYTDIMKILSKSIEKMQSDTQEANDIVTLANLQYNGSTPADAFETKVTNIIDRLNNNGIHINNKVACQLIMRGLSGEYKFLRYTRHRHLNMTVAELFLDIHAIYEEQQGSRNSKPNYRRNPSDEKNDSRSYTNTTKPKVIARNPQKTNNSKSKTARAHNVSTSNNSPSTDNDSISKSTTEPIQLNNKHDLHLRPETY
Take B1: the binding result in assay [1], in assay [2] and in assay [3] was “binds” each time.

B2: Ty1 Gag I343K (protein, UniProt P08405 1-440)
chain: B1 chain with I343K
On to B2, for which the binding entry in assay [4] was “no binding”.

B3: Ty1 Gag L252R (protein, UniProt P08405 1-440)
chain: B1 chain with L252R
For the molecule B3, in assay [5], the binding result was “binds”.

B4: Ty1 Gag I201T (protein, UniProt P08405 1-440)
chain: B1 chain with I201T
With B4, the binding entry in assay [6] is given as “binds”.

B5: Ty1 Gag K186Q (protein, UniProt P08405 1-440)
chain: B1 chain with K186Q
Consider B5, for which the binding result in assay [3] is reported as “binds”.
